Reference: PubChem BioAssay AID463173 (ICCB-Longwood Screening Facility, Harvard Medical School, 2010)
About 4,300 (8.3%) of roughly 52,000 compounds were called active. Cut-off read from the data, not from the text of the source: active = survival mostly below about 52% (no sharp cut-off); inactive = mostly above about 56%. Some of the results follow.

These compounds were tested on DeltatarO mutant (assay: S. aureus survival, RN4220 and DeltatarO strains – OD600, teichoic acid synthesis inhibitors, primary screen (AID 463173)). Conditions: S. aureus RN4220 wild type/DeltatarO growth, OD600, 18 h, active compounds read low, screened at 18.75 µg/mL (by protocol).

| Compound | survival |
| --- | --- |
| CCOC(=O)C1=C(CS(=O)(=O)c2ccc(F)c(C)c2)NC(=O)NC1c1ccc(F)c(F)c1 (centres undefined) | inactive: 83% |
| COC(=O)COc1ccc(S(=O)(=O)N2CCCCC2)cc1C | inactive: 72% |
| Cc1c(C(=O)Nc2ccccc2Cl)oc2ccc(S(=O)(=O)N3CCCCCC3)cc12 | inactive: 75% |
| Cc1cccc(N2CCN(C(=O)c3cccc(-n4c(C)nc5cccnc54)c3)CC2C)c1 (centres undefined) | inactive: 71% |
| CC(=O)c1ccc(N2C(=O)N(Cc3cccc(C(F)(F)F)c3)c3ccccc3S2(=O)=O)cc1 | inactive: 78% |
| O=C1C2C3c4ccccc4C(c4ccccc43)C2C(=O)N1Cc1ccccn1 (centres undefined) | inactive: 83% |
| CC(=O)Nc1ccc(NC(=O)CCCc2nc(-c3ccc(C(C)(C)C)cc3)no2)cc1 | inactive: 45% |
| CC1=C(C(=O)OC2CCCC2)C(c2ccc(F)cc2F)CC(=O)N1 (centres undefined) | inactive: 85% |
| Cc1ccc(CS(=O)(=O)c2cn(CC(=O)N(C)c3ccccc3)c3ccccc23)cc1 | inactive: 67% |
| Cc1nc2scc(C)n2c(=O)c1S(=O)(=O)NCc1ccccc1Cl | inactive: 158% |
| O=C1NN=C(Cc2ccccc2)C1CCO (centres undefined) | inactive: 91% |
| CCOc1cc(C(=O)Nc2ccc3oc(-c4ccc(F)cc4Cl)nc3c2)cc(OCC)c1OCC | inactive: 64% |
| Cc1ccc(NC(=O)c2cc(C)nn2-c2ccccc2)cc1 | inactive: 124% |
| COc1ccc(N(Cc2cccs2)C(=O)c2ccccc2C)cc1 | inactive: 81% |
| COc1ccccc1CNC(=O)CC1N=C2c3ccccc3N=C(SCC(=O)Nc3ccc(F)cc3)N2C1=O (centres undefined) | inactive: 125% |
| COc1ccccc1Nc1nn2c(=O)c3ccc(C(=O)N4CCC(C)CC4)cc3nc2s1 | active: 52% |
| O=C(Cn1nc(-c2ccccc2)ccc1=O)NCc1ccc(F)cc1Cl | inactive: 120% |
| COc1ccc(S(=O)(=O)Nc2cccc(-c3ccc(N4CCOCC4)nn3)c2)cc1F | inactive: 88% |
| COc1cc(NC(=O)c2c(-c3ccc(C)cc3)nnc3ccccc23)cc(OC)c1OC | inactive: 69% |
| Cc1oc2c(c1C(=O)Nc1cccc(Br)c1)C1=NCCN1C=N2 | inactive: 62% |
| Cc1cc2cc(C(c3nnnn3Cc3ccco3)N3CCN(C(=O)c4ccco4)CC3)c(=O)[nH]c2cc1C (centres undefined) | inactive: 96% |
| O=C(c1nc(-c2ccc(Cl)cc2)n2c1CCCCC2)N1CCN(c2ccccc2F)CC1 | inactive: 83% |
| Cc1cccc(C(=O)Nc2c3c(nn2-c2ccc(Cl)cc2)CS(=O)(=O)C3)c1 | inactive: 74% |

| Compound | survival |
| --- | --- |
| O=[N+]([O-])c1cc(-c2nc(-c3ccccc3)no2)ccc1NCC1CCCO1 (centres undefined) | inactive: 63% |
| CCOC(=O)c1ccc2c(c1)N(Cc1cccc(OC)c1)C(=O)c1ccccc1S2(=O)=O | inactive: 80% |
| CC(C)(C)OC(=O)N1CCC(c2c(C(=O)NC3CCN(Cc4ccccc4)CC3)cnn2-c2cccc(F)c2)CC1 | inactive: 92% |
| CCOC(=O)c1c(-c2ccccc2)oc2ccc(NS(=O)(=O)c3ccc(OC)cc3)cc12 | inactive: 60% |
| COc1ccc(OCC(=O)NCC2(N3CCN(C)CC3)CCCCC2)cc1 | inactive: 68% |
| COc1cc(C2C(=O)N(C3CCCCC3)CC(=O)N2C2CCCC2)ccc1OC(C)C (centres undefined) | inactive: 77% |
| COC(=O)CN1C(=O)C(C)(C)Oc2ccc(C(=O)Nc3cccc(OC)c3)cc21 | inactive: 80% |
| O=C(CSc1nc(-c2ccc(F)cc2)cc(C(F)(F)F)n1)NCc1ccccc1 | inactive: 62% |
| CC1CCN(c2ccc(NC(=O)c3cccc(Cl)c3)cc2C(=O)O)CC1 | inactive: 87% |
| Cc1ccc(-c2cc(C(=O)NC(C)c3ccccc3)c3ccccc3n2)cc1C (centres undefined) | inactive: 67% |
| CC1CCN(S(=O)(=O)c2ccc(NC(=O)Nc3ccccc3)cc2)CC1 | active: 9% |
| CC(=O)Nc1ccccc1-c1nc2ccccc2n(CC(=O)c2ccc(C)c(C)c2)c1=O | inactive: 104% |
| CCC(CC)C(=O)Nc1ccc(OCc2cc(=O)n3ccsc3n2)cc1 | inactive: 99% |
| Cc1ccc2ncc(C(=O)NCc3ccccc3Cl)c(=O)n2c1 | inactive: 94% |
| O=C(Nc1ccccc1)Nc1ccc2c(c1)C(=O)OC2 | inactive: 101% |
| Cc1ccc(C)c(N2CCN(CCCNC(=O)C3COc4ccccc4C3)CC2)c1 (centres undefined) | inactive: 70% |
| Cc1cccc(NC(=O)c2ccc(C(=O)Nc3cccc(C)c3C)cc2)c1C | inactive: 82% |
| Cc1nc(N)sc1C(C)(C)C | inactive: 86% |
| CN1CCN(C(c2ccccc2Cl)c2sc3nc(-c4ccco4)nn3c2O)CC1 (centres undefined) | inactive: 131% |
| CCC(=O)N1CCc2cc(Br)cc(S(=O)(=O)N3CCN(c4ccc(C(C)=O)cc4)CC3)c21 | inactive: 59% |
| COc1ccc(-c2cc(C(=O)Oc3cccc(C)c3)c3ccccc3n2)cc1 | active: -2% |
| Cc1ccc(CCNC(=O)C2CCN(c3nnc(C)c4c(C)n(-c5ccccc5)nc34)CC2)cc1 | inactive: 71% |
| COc1ccc(C)cc1NCc1nnc2n1CCCCC2 | active: 20% |

| Compound | survival |
| --- | --- |
| Cc1cc(OC(C)C(=O)N(Cc2ccco2)Cc2ccccc2F)cc(C)c1Cl (centres undefined) | inactive: 81% |
| O=C(CCCCn1c(=O)c2ccccc2n(Cc2ccc(Cl)cc2)c1=O)NCc1ccccc1Cl | inactive: 97% |
| COc1ccc(NC(=O)CSc2nc3ncccc3[nH]2)c(OC)c1 | inactive: 116% |
| Cn1c(=O)cc(OCC(=O)N2CCN(c3ccccc3)CC2)c2ccccc21 | inactive: 94% |
| CN(C)C(=O)CN1CCN(c2ccc(F)cc2)CC1 | inactive: 107% |
| COc1ccc(NC(=O)C2CCCN(C(=O)c3cnn(-c4ccc(F)cc4)c3-n3cccc3)C2)cc1 (centres undefined) | active: 47% |
| CCc1ccccc1NC(=O)c1ccc(F)c(S(=O)(=O)NC2CCCCCC2)c1 | inactive: 83% |
| Cc1ccc(NC(=O)CSc2nc3ccccc3c3nc(CCn4cncc4C)nn23)cc1F | inactive: 88% |
| Cc1ccc(NC(=O)CSCc2cnn(-c3ccccc3)c2-n2cccc2)c(C)c1 | inactive: 78% |
| CCOc1cccc2sc(N(Cc3cccnc3)C(=O)C3CCCCC3)nc12 | inactive: 91% |
| Cc1cc2oc(=O)c(CC(=O)NCCc3ccccc3)c(C)c2c2occ(C(C)(C)C)c12 | inactive: 76% |
| CC(=Nc1ccc(C)cc1)c1ccc(O)cc1O | inactive: 85% |
| Cc1cccc(N2CCN(C(=O)c3cn(C4CCCCC4)c(=O)c4c3c3ccccc3n4C)CC2)c1C | inactive: 115% |
| Cc1cc(C(=O)O)c2c(=O)n(C)c(=O)n(C)c2n1 | inactive: 99% |
| COc1ccc(-c2cn3c(n2)sc2cc(C(=O)NC4CCCc5ccccc54)ccc23)cc1 (centres undefined) | inactive: 58% |
| CCCOC(=O)c1c(C)oc2c1cc(NS(=O)(=O)c1ccc(OCC)cc1)c1ccccc12 | active: 56% |
| CCCCN(C)CCCNC(=O)c1ccc2nc(N3CCCCC3)sc2c1 | inactive: 99% |
| CCN(C(=O)CCc1nc(-c2ccc(C)cc2)no1)c1cc(C)ccc1C | active: -4% |
| CCc1cc(C(=O)O)c(NC(=O)c2ccccc2)s1 | inactive: 65% |
| Cc1cccc(NC(=O)C2CCCN(S(=O)(=O)c3cccc4nonc34)C2)c1C (centres undefined) | inactive: 119% |
| CCN1CCC(N(Cc2ccc3c(c2)OCO3)C(=O)Nc2cc(Cl)ccc2C(=O)OC)CC1 | inactive: 126% |
| COc1ccc(N2CC(NC(=O)/C=C\c3ccc(OC)c(OC)c3)CC2=O)cc1 (centres undefined) | inactive: 55% |
| CCc1ccc(-n2c(SC(CC)C(=O)N(CC)CC)nc3n[nH]c(C)c3c2=N)cc1 (centres undefined) | inactive: 128% |

| Compound | survival |
| --- | --- |
| Cc1nc(CC(=O)Nc2ccc(C)c(C)c2)cs1 | active: 40% |
| CCOC(=O)N1CCN(S(=O)(=O)N2CCCC(C(=O)NCc3cc(OC)ccc3OC)C2)CC1 (centres undefined) | inactive: 70% |
| CCOCCCNC(=O)C1CCCN(Cc2nc(-c3ccc(CC)cc3)oc2C)C1 (centres undefined) | inactive: 76% |
| CC(C)NC(=O)Cn1cc(C(=O)C(C)C)c2ccccc21 | inactive: 102% |
| CCc1ccc(OCC(=O)N(Cc2cccs2)c2ccc(Cl)cc2)cc1 | inactive: 66% |
| CCN(Cc1ccccc1)Cc1c(O)ccc2c(=O)c(-c3ccccc3OC)c(C(F)(F)F)oc12 | inactive: 62% |
| Cc1cccc(OCCSc2nc3ccccc3n2CC(=O)N2CCCCC2)c1C | active: 28% |
| CCOC(=O)c1ccc(N2CCN(c3cc(Cl)ccc3C)CC2)c(NC(=O)Nc2cccc(OC)c2)c1 | inactive: 76% |
| CC(=O)Nc1nonc1-c1nnc(SCC(=O)Nc2ccc(F)cc2F)n1-c1ccccc1 | active: 13% |
| Cc1ccc(Cn2c(CNS(=O)(=O)c3c(C)cc(C)cc3C)nc3cccnc32)cc1 | inactive: 122% |
| Cc1c(C)n(Cc2ccccc2)c2ccc(C(=O)NC(C)c3ccccc3)cc12 (centres undefined) | inactive: 78% |
| COc1ccc(OCC(=O)Nc2ccc(C(=O)OCc3cc(=O)n4nc(C)sc4n3)cc2)cc1 | inactive: 105% |
| CCOc1ccccc1N(CC)C(=O)Nc1cn(C)c(=O)c2ccccc12 | inactive: 94% |
| Cc1cccc2cc(C#N)c(SCC(=O)NCC3CCCO3)nc12 (centres undefined) | inactive: 98% |
| Cc1ccc(/C=C/c2onc(C)c2S(=O)(=O)N2CCC(C(=O)N3CC(C)Oc4ccccc43)CC2)cc1 (centres undefined) | inactive: 116% |
| CCCCCn1c(=O)[nH]c2cc(C(=O)N3CCN(c4ccccc4)CC3)ccc2c1=O | inactive: 68% |
| COc1ccc(N2CCN(C(CNC(=O)CC(C)C)c3ccc4c(c3)OCO4)CC2)cc1 (centres undefined) | inactive: 75% |
| Cc1ccc(-c2nc3ccc(Cl)cn3c2Nc2ccc3c(c2)OCCO3)o1 | inactive: 58% |
| COc1ccc(-c2nc(CS(=O)CC(=O)NCc3ccc(F)cc3)c(C)o2)cc1OC (centres undefined) | inactive: 86% |
| CS(=O)(=O)N(CC(=O)N1CCN(Cc2ccc3c(c2)OCO3)CC1)Cc1ccccc1 | inactive: 70% |
